Results published in ChEMBL document CHEMBL1201862, “PubChem BioAssay data set” (2004).
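Assay format: 96-well plates, 48-hour exposure. Here, GI50 denotes the concentration required for 50% inhibition of growth.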 Active and inactive are the calls of the source. Rule as the data show it: active = GI50 up to about 1.1 µM and inactive = higher.

These compounds were tested on NCI-H322M (assay: DTP human tumour cell line panel, 48 h).

| SMILES | GI50 |
| --- | --- |
| COc1cc(-c2oc3c(OC)c(O)cc(O)c3c(=O)c2OC)ccc1O | inactive: 20.7 µM |
| Cc1cs/c(=N\C(P(=O)(O)O)P(=O)(O)O)n1C | inactive: > 100 µM |
| CCCCCc1c(CCCC)c(O)nc2nc(NC(=O)CCCC)ccc12 | inactive: > 100 µM |
| CNC(=O)CNC(=O)N(C[C@@H]1CCCN1C(=O)[C@H](CC(C)C)NC(=O)OC(C)(C)C)C(C)C | inactive: > 100 µM |
| N#Cc1c([N+](=O)[O-])cc(C(F)(F)F)cc1[N+](=O)[O-] | inactive: 16.9 µM |
| Cc1cc(S(=O)(=O)Nc2nc3ccsc3c(=O)n2N)c(S)cc1Cl | inactive: 52 µM |
| COC(=O)[C@@H]1CCc2nc3ccccc3c(=O)n21 | inactive: > 100 µM |
| COC1C(CN[N+](=O)CC2OC3OC(C)(C)OC3C2OC)OC2OC(C)(C)OC21 (stereo not given) | inactive: > 100 µM |
| O=C1/C=C(/c2ccc(O)cc2)[C@@H](O)Cc2ccc(O)cc2O1 | inactive: 80.7 µM |
| O=S(O)CCCCSSCCCCS(=O)(=O)S | inactive: 71.8 µM |
| Cc1cc2c3c(nc4ccccc42)C(=O)c2ccccc2-c3n1 | inactive: 2.18 µM |
| CC(=O)OCC12C(OC(C)=O)C[C@@H](C)C3(CC(c4ccoc4)OC3=O)C1CCC(OC(C)=O)C21CO1 (stereo not given in full) | inactive: > 100 µM |
| CC(C)N(CC(=O)O)CC(=O)O | inactive: > 100 µM |
| C1CCN(c2nsc(N3CCCCC3)n2)CC1 | inactive: > 100 µM |
| N#Cc1c(N2CCCC2)nsc1Nc1ccc(F)cc1 | inactive: > 100 µM |
| COc1cccc(N2C(=O)c3c(c4[nH]c5ccccc5c4c4ccc(C(C)(C)C)cc34)C2=O)c1 | inactive: > 100 µM |
| O=C(/N=N/C(=O)OCc1ccccc1)OCc1ccccc1 | inactive: > 100 µM |
| O=C(O)CNCCc1ccccc1 | inactive: > 100 µM |
| CCCCCCC(N)(CCCCCC)C(=O)Nn1c(C)ccc1C | inactive: > 100 µM |
| NC(=O)c1cc2ccccc2o/c1=N/O | inactive: > 100 µM |

| SMILES | GI50 |
| --- | --- |
| O=C1Nc2ccc(Br)cc2/C1=N/Nc1ccccc1[N+](=O)[O-] | inactive: 22.2 µM |
| COc1cc(/C=c2/c3ccccc3n3c2cc(-c2ccccc2)[n+]3C)cc(OC)c1OC | inactive: 9.16 µM |
| CCOC(=O)CSc1nc2ccccc2c(=O)n1N | inactive: > 100 µM |
| CCCCCC(=O)NC(=S)Nc1nnn[nH]1 | inactive: > 100 µM |
| c1ccc2c(c1)-c1ccccc1C2NC1=NCCO1 | inactive: 35.5 µM |
| COc1ccc(CN2C(=O)C(Cc3cc(OC)c(OC)c(C)c3OC)N(C(=O)OC(C)C)C(=O)/C2=C/c2cc(OC)c(OC)c(C)c2OC)cc1 (stereo not given) | inactive: 88.7 µM |
| COc1ccc2[nH]c3c(C)c4cc[n+](C)cc4c(C)c3c2c1 | active: 0.769 µM |
| COc1ccc(-n2c(C)nc3ccc(NC4OC(COC(C)=O)C(OC(C)=O)C(OC(C)=O)C4OC(C)=O)cc3c2=O)cc1 (stereo not given) | inactive: > 100 µM |
| CCSC1=N/C(=C\c2ccco2)C(Cl)=N1 | inactive: > 100 µM |
| COC1C=CC23c4cc5c(cc4C(O)OC2CN(C)C3C1)OCO5 (stereo not given) | inactive: 2.49 µM |
| C/N=C1\CC2c3cc(OC)c(OC)cc3CCN2C2=C1C(=O)CC(C)(C)C2 (stereo not given) | inactive: > 100 µM |
| COC(OC)[C@@H]1OC[C@H](n2cnc3c(N)ncnc32)[C@H]1O | inactive: > 100 µM |
| N#Cc1cc2c(cc1Cl)Sc1nnc(Nc3ccccc3)n1S2(=O)=O | inactive: 2.57 µM |
| O=C(NNC(=O)c1ccccc1Cl)c1ccccc1O | inactive: 81.5 µM |
| CC(=O)Nc1cc2cc(N)ccc2oc1=O | inactive: > 100 µM |
| N#Cc1ccc(Sc2nc3ccccc3[nH]2)cc1 | inactive: > 100 µM |
| CCOC(=O)c1nc2ccccc2nc1Nc1ccc(C(=O)OC)s1 | inactive: > 100 µM |
| CCn1c2ccccc2c2cc(/N=N\c3ccc(C#N)cc3)ccc21 | inactive: 40.6 µM |
| [O-][n+]1c(CN2CCCCC2)nc2cccc3c2c1-c1ccccc1-3 | inactive: 20.7 µM |
| Nc1ccc(C(=O)NN2C(=O)C(Cl)C2c2ccc([N+](=O)[O-])cc2)cc1 (stereo not given) | inactive: 13.9 µM |
